PubChem BioAssay AID488969 (Vanderbilt High Throughput Screening Facility, 2010)
Whole data set: some 110,000 compounds, median “z-score” near -0.1, cut for the highest 2% near 2. Some of the results follow. Active and inactive are the calls of the source.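 The calls were made as follows: active = z-score in the third read window above 3 or below -3; inactive = the rest.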

What follows are compounds tested against Metabotropic glutamate receptor 8 (Rattus norvegicus) (UniProt P70579) (assay: rat mGluR8 modulators via GIRK flux, primary screen, cell-based, thallium flux, HTS (AID 488969)). Conditions: HEK293 rat mGluR8, GIRK (G protein-gated inwardly rectifying potassium channel) thallium flux, FluoZin2; at 10 µM; stronger effect = higher value; submaximal glutamate (EC20) added with thallium.
Chain of UniProt P70579 (P70579 whole entry, looked up): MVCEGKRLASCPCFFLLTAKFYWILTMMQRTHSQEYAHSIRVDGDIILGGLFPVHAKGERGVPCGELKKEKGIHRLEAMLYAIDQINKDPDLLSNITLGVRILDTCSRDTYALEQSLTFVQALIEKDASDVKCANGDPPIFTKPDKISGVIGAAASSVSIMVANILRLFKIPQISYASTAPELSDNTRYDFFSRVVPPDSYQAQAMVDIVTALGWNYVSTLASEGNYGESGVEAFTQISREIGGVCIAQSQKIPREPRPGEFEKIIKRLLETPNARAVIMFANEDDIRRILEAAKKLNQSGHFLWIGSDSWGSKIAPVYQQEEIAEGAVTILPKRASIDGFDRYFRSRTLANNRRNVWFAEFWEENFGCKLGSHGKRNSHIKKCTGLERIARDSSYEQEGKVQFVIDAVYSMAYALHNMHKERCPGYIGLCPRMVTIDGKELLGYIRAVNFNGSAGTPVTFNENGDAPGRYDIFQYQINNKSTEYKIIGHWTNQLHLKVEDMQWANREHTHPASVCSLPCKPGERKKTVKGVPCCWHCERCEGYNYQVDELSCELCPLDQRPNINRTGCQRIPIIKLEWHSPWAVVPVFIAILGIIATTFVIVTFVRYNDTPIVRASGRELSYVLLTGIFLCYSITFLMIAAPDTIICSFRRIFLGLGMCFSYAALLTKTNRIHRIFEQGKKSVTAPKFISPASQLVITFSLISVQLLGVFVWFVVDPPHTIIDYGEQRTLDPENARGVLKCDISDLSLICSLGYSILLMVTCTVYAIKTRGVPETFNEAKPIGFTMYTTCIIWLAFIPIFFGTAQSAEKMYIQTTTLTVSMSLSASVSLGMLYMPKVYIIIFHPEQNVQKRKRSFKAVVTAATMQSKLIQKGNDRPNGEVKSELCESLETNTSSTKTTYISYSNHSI

In order of rising z-score:
1. Cc1nn(Cc2ccccc2)c(C)c1NC(=O)CSc1nc2sc3c(c2c(=O)n1C)CCC3  -2.27
2. COC(=O)CC/C(O)=C1\C(=O)CC(C)(C)CC1=Nc1ccccc1OC  -2.11
3. CCCCc1nn(-c2cc(Cl)ccc2OC)c2c1C(=O)CC(C)(C)C2  -1.66
4. CCn1c(SC/C=C/c2ccccc2)nnc1-c1cccs1  -1.61
5. COc1ccc(C2=C(SC)CC2=NC(C)(C)C)cc1  -1.36
6. COc1ccc(CCNC(=O)c2ccc3c(=O)n(Cc4ccco4)c(=S)[nH]c3c2)cc1OC  -0.965
7. COc1ccccc1N1CCN(C(=O)c2ccc(C(C)(C)C)cc2)CC1  -0.869
8. COc1ccc(NC(=O)Nc2nc3c(s2)CCCC3)cc1  -0.842
9. CC(C)C(=O)N1CCC(CN=Cc2c(O)n(C3CCCCC3)c(=O)n(C3CCCCC3)c2=O)CC1  -0.818
10. N#C/C(=C\c1cc2ccccc2nc1N1CCCCC1)C(N)=O  -0.818
11. Fc1cnc(N2CCOCC2)nc1N1CCc2ccccc21  -0.743
12. O=C(OCCN1C(=O)c2ccccc2C1=O)c1cc2ccccc2o1  -0.735
13. CCOc1ccccc1-n1c(SCC(N)=O)nnc1-c1ccco1  -0.718
14. CCOC(=O)N1CCN(C(=O)c2cc3c(-c4ccc(Cl)cc4)nn(C)c3s2)CC1  -0.669
15. COc1ccc(-c2cnn3c4c(c(C)nc23)CCN4C(C)C)cc1OC  -0.646
16. Cc1nn(C(C)CC(=O)O)c(C)c1Br (stereo not drawn)  -0.495
17. COC(=O)c1c(NC(=O)CN2C(=O)NC(CCc3ccccc3)C2=O)sc2c1CCCCC2 (stereo not drawn)  -0.482
18. Cc1ccc(S(=O)(=O)/C=C/c2ccccc2)cc1  -0.478
19. O=C1OCCC1Sc1nnc(-c2ccc(Cl)cc2)n1Cc1ccccc1 (stereo not drawn)  -0.478
20. O=C(Nc1cccc(Cl)c1)N(CCN1CCOCC1)Cc1cccc(Cl)c1  -0.473
21. COC(=O)c1ccc(CSc2ncnc3ccccc23)o1  -0.436
22. CC(OC(=O)c1c2c(nc3ccccc13)/C(=C\c1ccc3c(c1)OCO3)CCC2)C(=O)Nc1ccc(S(N)(=O)=O)cc1 (stereo not drawn)  -0.411
23. CCCCCc1c(O)c2ccccc2[nH]c1=O  -0.405
24. COc1ccc(OC2C(=O)N(Cc3ccc4c(c3)OCO4)C2c2sccc2C)cc1 (stereo not drawn)  -0.396
25. CCN(CC)c1nc(C(N)=O)cc(-c2ccccc2)n1  -0.396
26. O=C(Nc1cccn2ncnc12)C(Cl)Cl  -0.39
27. O=C(c1cc(N2C(=O)C3C4CCC(C4)C3C2=O)ccc1Cl)N1CCN(c2ccccc2F)CC1 (stereo not drawn)  -0.388
28. COc1ccc(S(=O)(=O)N2CCC(C(N)=O)(N3CCCCC3)CC2)cc1  -0.324
29. CSc1ncc(Cl)c(C(=O)Nc2cccc3ccccc23)n1  -0.314
30. C=CCSc1nnc(NC(=O)COc2ccc3ccccc3c2)s1  -0.306
31. Cc1ccc2c(c1)c(=O)c1c3n2CCN(C(=O)CCl)C3CC1 (stereo not drawn)  -0.296
32. CCOc1ccc(N(CCC#N)S(=O)(=O)c2ccc(OC)cc2)cc1  -0.294
33. O=C(Nc1nc(-c2cccs2)cs1)c1ccc(Cl)cc1  -0.276
34. CCn1c(SCC(=O)Nc2cccc(F)c2)nnc1-c1cc2cc(Br)ccc2o1  -0.256
35. O=C(CSc1nc(-c2ccccc2)cs1)Nc1cccc([N+](=O)[O-])c1  -0.251
36. Cc1cc(C(C)(C)C)cc(S(=O)(=O)NCC(=O)O)c1C  -0.242
37. CCSc1ccccc1C(=O)Nc1nncs1  -0.23
38. COc1cc(/C(C)=N/Nc2ccc(C(=O)O)cc2)cc(OC)c1OC  -0.226
39. CCCOC(=O)c1ccc(S(N)(=O)=O)o1  -0.222
40. CS(=O)(=O)N1CCCC(C(=O)NCc2ccco2)C1 (stereo not drawn)  -0.219
41. Clc1ccc(CN2CCCCCCC2)cc1Cl  -0.202
42. Nc1ccc(-c2nc3ccc(N)cc3o2)cc1  -0.187
43. COC(=O)c1sc(S(=O)(=O)N2CCCCC2)c(C(=O)OC)c1C  -0.182
44. Cc1nn2c3ccccc3n(C)c2nc1=O  -0.18
45. CNS(=O)(=O)c1ccc(N2CCCC2=O)c([N+](=O)[O-])c1  -0.177
46. CC(=O)N1N=C(c2ccc3nccnc3c2)CC1c1ccccc1 (stereo not drawn)  -0.161
47. CC(=O)c1c(C)[nH]c(C(=O)NC2=NCCS2)c1C  -0.158
48. Cc1ccc(-c2nnc(-c3ccc(NC(=O)Cc4cccs4)cc3)o2)cc1  -0.144
49. O=C(CN1C(=O)c2cccc3cccc1c23)N1CCc2ccccc2C1  -0.142
50. COc1cc(Cl)c(C)cc1NC(=O)[C@@H]1CCCN1C(=O)c1cccs1  -0.141
51. COc1ccc(Cl)cc1N1Cc2ccccc2C1  -0.134
52. O=C(Nc1ccncc1)Nc1ccccn1  -0.133
53. CCOC(=O)c1sc(NC(=O)CCCCCN2C(=O)c3cccc4cccc(c34)C2=O)nc1C  -0.127
54. COc1ccc(N2C(=O)CN=C2Nc2nc(C)cc(C)n2)cc1OC  -0.0876
55. CC/C(=N\O)c1ccc(OC)c(OC)c1  -0.0836
56. O=C(CCn1cnc2ccccc2c1=O)Nc1nc(-c2ccc(Br)cc2)cs1  -0.0773
57. COc1ccc(N2C(=O)CC(N(Cc3ccc(S(N)(=O)=O)cc3)C(C)=O)C2=O)cc1 (stereo not drawn)  -0.0773
58. Cc1cc(C)nc(SCNC(=O)c2ccc(Cl)cc2)n1  -0.0711
59. COC(=O)Nc1ccc(C)c(NC(=O)OC)c1  -0.0565
60. COC(=O)CN1C(=S)N(Cc2ccccc2)C(=O)C1CC(=O)Nc1ccc(Br)cc1 (stereo not drawn)  -0.0486
61. COc1cc(C(=O)NCCOc2cc(C)cc(C)c2)c(Br)c(OC)c1OC  -0.0364
62. COc1ccc(C(=O)N[C@H](C(=O)NCC2CCCCC2)C(C)C)cc1  -0.0328
63. O=C(O)Cn1cc(C(=O)C2CC2)c2ccccc21  -0.0301
64. O=c1c2ccccc2nc2n1C(CSc1ccc(Br)cc1)CN2 (stereo not drawn)  -0.025
65. COc1ccc(NC(=O)c2ccccn2)cc1OC  -0.0195
66. O=C(/C=C/c1ccc([N+](=O)[O-])cc1)NCc1cccs1  -0.0179
67. CCN(CC)CCN1C(=O)C(O)=C(C(=O)c2ccc(C)o2)C1c1ccccn1 (stereo not drawn)  -0.0148
68. CCc1cc2c(=O)c(-c3ccc4c(c3)OCCO4)coc2cc1OC(=O)c1ccco1  -0.00568
69. Cc1ccc(S(=O)(=O)NC2=NCCCCC2)cc1  -0.00378
70. CC1(C)OC(=O)C(=CNc2cccc(C(=O)O)c2)C(=O)O1  0.00198
71. O=C(NCCCN=C1NS(=O)(=O)c2ccccc21)c1ccc(S(=O)(=O)N2CCCCC2)cc1  0.0192
72. Cc1ccc(C(=O)N/C(=C/c2ccc(F)cc2)C(=O)NCc2ccncc2)cc1  0.0237
73. CCCc1nc(SC2CCCC2)c2c(=O)n(C)c(=O)n(C)c2n1  0.0535
74. CCCC(=O)Nc1ccc(N2CCN(C(=O)c3ccccc3C)CC2)cc1  0.0557
75. Cc1ccc(C2=CC(c3cccs3)n3nnnc3N2)cc1 (stereo not drawn)  0.0575
76. CSc1n[nH]c(NC(C)=O)n1  0.059
77. CC(=O)c1cccc(NC(=O)CSc2nnc(-c3cccnc3)o2)c1  0.059
78. Cc1ccc(C(=O)NCCCCNC(=O)c2ccc(C)o2)o1  0.0778
79. O=C(NCc1ccc(F)cc1)C(c1ccncc1)N(C(=O)c1csnn1)C1CC1 (stereo not drawn)  0.0871
80. CC1=NN(c2ccc(C)c(C)c2)C(=O)C1C(c1cccc(O)c1)C1C(=O)N(c2ccc(C)c(C)c2)N=C1C (stereo not drawn)  0.0893
81. CCOc1ccc(OCc2cccc(C(=O)Nc3ccc(CN4CCCCC4)cc3)c2)cc1  0.145
82. CCOC(=O)C1CCCN(C(=O)c2cncc(Br)c2)C1 (stereo not drawn)  0.163
83. Cc1ccc(/C=N\NC(=O)c2cc(OCC(F)(F)F)ccc2OCC(F)(F)F)cc1  0.196
84. Fc1ccc(-n2c(Cc3ccccc3)nnc2SCc2nc(-c3ccc(Cl)cc3)no2)cc1  0.224
85. O=C(NCc1cccnc1)c1ccccn1  0.228
86. CC(=O)NC1(C(F)(F)F)N=C2SCCN2C1=O (stereo not drawn)  0.258
87. CCCCn1c(=O)n(C)c(=O)c2c(C(F)(F)F)cc(-c3ccncc3)nc21  0.277
88. CCOC(=O)c1ccccc1NC(=O)Cn1cnc2c(oc3ccccc32)c1=O  0.284
89. CC(C)(C)NC(=O)C(c1ccccc1)N(Cc1cccs1)C(=O)c1csnn1 (stereo not drawn)  0.292
90. Cc1ccc(NS(=O)(=O)c2cc(C(N)=O)ccc2C)cc1  0.305
91. O=C1CC(c2cc3c(cc2Br)OCO3)C2=C(CCCC2=O)N1 (stereo not drawn)  0.316
92. CCn1c(SC(C)C)nnc1-c1c[nH]c2ccccc12  0.318
93. CCN1CCN(CC(=O)Nc2cccc(C)c2)C(=O)C1=O  0.32
94. Cc1ccc(S(=O)(=O)c2c(C(=O)c3ccccc3)cnc3cc4c(cc23)OCCO4)cc1  0.383
95. O=[N+]([O-])c1ccccc1/C=N/n1c(-c2cccnc2)n[nH]c1=S  0.416
96. O=C(OCC1CCCN2CCCCC12)c1ccc2c(c1)OCO2 (stereo not drawn)  0.442
97. Cn1cccc1/C=N/NC(=O)c1cccnc1  0.491
98. Brc1ccc(Sc2cnc3ccccc3n2)cc1  0.523
99. Cc1ccc2nsnc2c1S(=O)(=O)N1CCN(CCc2ccccc2)CC1  0.537
100. CC(C)c1ccc(NC(=O)CCNS(=O)(=O)c2cccc3nonc23)cc1  0.647
101. Cc1ccc(SCCNC(=O)/C=C/c2ccc([N+](=O)[O-])cc2)cc1  0.657
102. COc1ccc(NC(=O)CSc2nnc(Cn3cnc4ccccc43)n2C)cc1  0.66
103. Cc1ccc(C)c(NC(=O)CSc2nnc(CCNC(=O)OC(C)(C)C)o2)c1  0.761
104. COC(=O)c1c(NC(=O)CN(c2ccccc2)S(C)(=O)=O)sc2c1CCCC2  0.77
105. CCOc1ccc(C2c3c(oc4cc(C)c(C)cc4c3=O)C(=O)N2CCCN2CCOCC2)cc1 (stereo not drawn)  0.778
106. OC(c1ccc(Cl)cc1)c1nnc(-c2ccccc2)o1 (stereo not drawn)  0.955
107. CCC(C)(C(=O)NC1CCCCC1)N(C(=O)C1CCC(=O)N1)c1ccccc1 (stereo not drawn)  0.963
108. Cc1cc(C(C)(C)C)ccc1OCCN(C)C  1.12
109. CS/C(=N\S(=O)(=O)c1cccs1)Nc1ccc(F)c(Cl)c1  1.29
110. CNS(=O)(=O)c1cc(NC(C)=O)c(C)cc1C  1.36
111. COCCNC(=O)CN(c1cc(C(F)(F)F)ccc1Cl)S(C)(=O)=O  1.88
112. CCn1c(SCC(=O)Nc2ccc(N3CCOCC3)c(Cl)c2)nnc1-c1ccc(N)cc1  2.78

In the case of `Cc1ccnc(NC(=S)NC(=O)c2cccs2)c1`, the z-score is reported as active: 7.29.
